The name of at least one read-out is uncertain. Marks after values point to notes of the source that are not given here. For some of these results: At least one structure is not confirmed: it was looked up by name or label, or the drawing left a doubt.
How the values were obtained:
osteoclasts [1] = experiment: Osteoclast cell formation, counting of TRAP staining positive cells; type: cell-based, Japanese White Rabbit; conditions: n = 6, x ± s
osteoblasts = experiment: Calcium deposition assay (alizarin red method); type: cell-based; conditions: for ARS concentration / calcium nodule size: 5 d, n = 4, x ± s
Method: Next, each well is added with 1 mL extract (extract preparation: 800 mL 10% acetic acid with 200 mL anhydrous ethyl alcohol), and extracted for 30 min-45 min, kept in dark, shaken slightly, the absorbance of 450 nm wavelength is measured and recorded. […] As alizarin red S and calcium are linear correlated, the calcium deposition is evaluated according to the alizarin red S concentration.

osteoblasts MG63 = experiment: Osteoblast proliferation, MTT method; type: cell-based; conditions: MG63, n = 4, x ± s
osteoclasts [2] = experiment: Osteoclastic absorption, resorption pit size on bone slices; type: cell-based, Japanese White Rabbit; conditions: 5 days' culture, n = 6, x ± s

SMILES	OC cell formation, TRAP staining positive cells counted (osteoclasts [1]; 10^−5 mol/L, 3 d)	OC cell formation, TRAP staining positive cells counted (osteoclasts [1]; 10^−5 mol/L, 5 d)	OC cell formation, TRAP staining positive cells counted (osteoclasts [1]; 10^−7 mol/L, 3 d)	OC cell formation, TRAP staining positive cells counted (osteoclasts [1]; 10^−7 mol/L, 5 d)	OC cell formation, TRAP staining positive cells counted (osteoclasts [1]; 10^−9 mol/L, 3 d)	OC cell formation, TRAP staining positive cells counted (osteoclasts [1]; 10^−9 mol/L, 5 d)	ARS concentration (osteoblasts; 10^−5 mol/L) [µg/mL]	calcium nodule size (osteoblasts; 10^−5 mol/L) [mm^2]	ARS concentration (osteoblasts; 10^−7 mol/L) [µg/mL]	calcium nodule size (osteoblasts; 10^−7 mol/L)	ARS concentration (osteoblasts; 10^−9 mol/L) [µg/mL]	calcium nodule size (osteoblasts; 10^−9 mol/L)	Cell proliferation (MTT method), absorbance value under 490 nm (osteoblasts MG63; 10^−5 mol/L, 24 h)	Cell proliferation (MTT method), absorbance value under 490 nm (osteoblasts MG63; 10^−5 mol/L, 48 h)	Cell proliferation (MTT method), absorbance value under 490 nm (osteoblasts MG63; 10^−5 mol/L, 72 h)	Cell proliferation (MTT method), absorbance value under 490 nm (osteoblasts MG63; 10^−7 mol/L, 24 h)	Cell proliferation (MTT method), absorbance value under 490 nm (osteoblasts MG63; 10^−7 mol/L, 48 h)	Cell proliferation (MTT method), absorbance value under 490 nm (osteoblasts MG63; 10^−7 mol/L, 72 h)	Cell proliferation (MTT method), absorbance value under 490 nm (osteoblasts MG63; 10^−9 mol/L, 24 h)	Cell proliferation (MTT method), absorbance value under 490 nm (osteoblasts MG63; 10^−9 mol/L, 48 h)	further results
O=c1c2ccccc2[se]n1CCC(P(=O)(O)O)P(=O)(O)O [SC-3, 2-(3-carbonylbenzo[d][1,2]selenazole-2(3H))-ethyl-methylene diphosphonic acid]	12 ± 3	3 ± 3	9 ± 5	4 ± 3	13 ± 5	15 ± 6	263 ± 10	1.13 ± 0.03	413 ± 21	1.91 ± 0.17 mm^2	431 ± 19	2.44 ± 0.13** mm^2	0.332 ± 0.009	0.367 ± 0.007	0.304 ± 0.005	0.362 ± 0.011	0.410 ± 0.011	0.587 ± 0.012	0.387 ± 0.012	0.413 ± 0.008	Cell proliferation (MTT method), absorbance value under 490 nm (osteoblasts MG63; 10^−9 mol/L, 72 h): 0.646 ± 0.009; formation and size of resorption pit of the osteoclast (osteoclasts [2]; 10^−5 mol/L): 9.35 ± 1.09; formation and size of resorption pit of the osteoclast (osteoclasts [2]; 10^−7 mol/L): 59.49 ± 10.03; formation and size of resorption pit of the osteoclast (osteoclasts [2]; 10^−9 mol/L): 100.49 ± 10.15
O=c1c2ccccc2[se]n1Cc1ccc(CC(P(=O)(O)O)P(=O)(O)O)cc1 [SC-11, 4-(2-methylbenzo[d][1,2]selenazole-3 (2H)-ketone)-benzyl-methylene diphosphonic acid]	5 ± 3	8 ± 6	10 ± 7	12 ± 6	9 ± 3	14 ± 8	299 ± 26	1.21 ± 0.11	398 ± 21	2.01 ± 0.21* mm^2	451 ± 29	2.38 ± 0.11** mm^2	0.331 ± 0.007	0.413 ± 0.012	0.322 ± 0.009	0.341 ± 0.009	0.438 ± 0.008	0.656 ± 0.011	0.366 ± 0.009	0.427 ± 0.009	Cell proliferation (MTT method), absorbance value under 490 nm (osteoblasts MG63; 10^−9 mol/L, 72 h): 0.694 ± 0.009; formation and size of resorption pit of the osteoclast (osteoclasts [2]; 10^−5 mol/L): 9.43 ± 4.25; formation and size of resorption pit of the osteoclast (osteoclasts [2]; 10^−7 mol/L): 56.72 ± 10.11; formation and size of resorption pit of the osteoclast (osteoclasts [2]; 10^−9 mol/L): 99.53 ± 11.27
CC1[Se]N(c2ccc(CC(P(=O)(O)O)P(=O)(O)O)cc2)C(=O)C1C (stereo not shown) [SC-5, 4-(4,5-dimethyl-1,2-seleniumazolidine-3-ketone)-benzyl-methylene diphosphonic acid]	9 ± 1	7 ± 2	14 ± 5	13 ± 6	11 ± 2	13 ± 3	300 ± 15	1.27 ± 0.10	386 ± 20	1.87 ± 0.21 mm^2	411 ± 18	2.03 ± 0.13* mm^2	0.348 ± 0.009	0.414 ± 0.007	0.383 ± 0.009	0.361 ± 0.008	0.437 ± 0.010	0.661 ± 0.010	0.371 ± 0.006	0.419 ± 0.008	Cell proliferation (MTT method), absorbance value under 490 nm (osteoblasts MG63; 10^−9 mol/L, 72 h): 0.702 ± 0.009; formation and size of resorption pit of the osteoclast (osteoclasts [2]; 10^−5 mol/L): 5.58 ± 0.98; formation and size of resorption pit of the osteoclast (osteoclasts [2]; 10^−7 mol/L): 46.40 ± 11.21; formation and size of resorption pit of the osteoclast (osteoclasts [2]; 10^−9 mol/L): 98.41 ± 13.26
CC1[Se]N(c2ccc(CC(O)(P(=O)(O)O)P(=O)(O)O)cc2)C(=O)C1C (stereo not shown) [SC-6, 4-(4,5-dimethyl-1,2-seleniumazolidine-3-ketone)-benzyl-1-hydroxyl-methylene diphosphonic acid]	12 ± 6	5 ± 4	11 ± 3	7 ± 4	13 ± 1	13 ± 4	259 ± 12	1.19 ± 0.04	421 ± 18	2.02 ± 0.16* mm^2	469 ± 17	2.53 ± 0.19** mm^2	0.392 ± 0.010	0.377 ± 0.009	0.411 ± 0.008	0.410 ± 0.007	0.400 ± 0.007	0.632 ± 0.010	0.428 ± 0.010	0.441 ± 0.008	calcium deposition of osteoblasts (in words) (osteoblasts; lower / low concentration): increases the calcium deposition of osteoblasts obviously; Cell proliferation (MTT method), absorbance value under 490 nm (osteoblasts MG63; 10^−9 mol/L, 72 h): 0.699 ± 0.008; formation and size of resorption pit of the osteoclast (osteoclasts [2]; 10^−5 mol/L): 10.13 ± 2.78; formation and size of resorption pit of the osteoclast (osteoclasts [2]; 10^−7 mol/L): 68.43 ± 9.92; formation and size of resorption pit of the osteoclast (osteoclasts [2]; 10^−9 mol/L): 109.43 ± 16.42
